The source gives many values for each of these; only a part stands here.
What was measured:
[1] = tested on: Rat; test: concentration in plasma after dosing; conditions: 0.25 h; dosed: 2-Methyltetrahydrofuran; 10 mg/kg; iv; Female; F344
[2] = tested on: Rat; test: concentration in brain after dosing; conditions: 5 min; dosed: 2-Methyltetrahydrofuran; 10 mg/kg; iv; Female; F344
[3] = tested on: Rat; test: concentration in brain after dosing; conditions: 20 min; dosed: 2-Methyltetrahydrofuran; 10 mg/kg; iv; Male; F344
[4] = tested on: Rat; test: concentration in plasma after dosing; conditions: dosed: Bromochloroacetic acid, 100 mg/kg, oral, Male, F344
[5] = tested on: Rat; test: concentration in plasma after dosing; conditions: dosed: Bromochloroacetic acid, 100 mg/kg, oral, Female, F344
[6] = tested on: Rat; test: concentration in plasma after dosing; conditions: dosed: Fluorotelomer alcohol 8+2, 48 mg/kg, oral, Male, Harlan Sprague Dawley
[7] = tested on: Rat; test: concentration in plasma after dosing; conditions: dosed: Formamide, 90 mg/kg, iv, Male, Harlan Sprague Dawley
[8] = tested on: Rat; test: concentration in plasma after dosing; conditions: dosed: Formamide, 36 mg/kg, oral, Male, Harlan Sprague Dawley
[9] = tested on: Rat; test: concentration in plasma after dosing; conditions: dosed: Formamide, 90 mg/kg, iv, Male, Harlan Sprague Dawley; remark: listed apart in the source
[10] = tested on: Rat; test: concentration in plasma after dosing; conditions: dosed: Formamide, 36 mg/kg, oral, Female, Harlan Sprague Dawley
[11] = tested on: Rat; test: concentration in plasma after dosing; conditions: dosed: Formamide, 300 mg/kg, oral, Female, Harlan Sprague Dawley
[12] = tested on: Rat; test: concentration in plasma after dosing; conditions: 1 h; dosed: Pyridine; 50 mg/kg; oral; Female; F344
[13] = tested on: Rat; test: concentration in plasma after dosing; conditions: 50 min; dosed: Pyridine; 10 mg/kg; iv; Male; Harlan Sprague Dawley

## CC1CCCO1 (stereo unspecified) [2-Methyltetrahydrofuran]
[1]
  concentration in plasma: 7240 ng/mL
[2]
  concentration in brain: 7.24 µg/g
[3]
  concentration in brain: 4.58 µg/g

## O=C(O)C(Cl)Br (stereo unspecified) [Bromochloroacetic acid]
[4]; 0.25 h
  concentration in plasma: 7270 ng/mL
[4]; 6 h
  concentration in plasma: 271 ng/mL
[5]; 5 min
  concentration in plasma: 8600 ng/mL
[5]; 3 h
  concentration in plasma: 6830 ng/mL

## OCCC(F)(F)C(F)(F)C(F)(F)C(F)(F)C(F)(F)C(F)(F)C(F)(F)C(F)(F)F [Fluorotelomer alcohol 8+2]
[6]; 0.5 h
  concentration in plasma: 641 ng/mL
[6]; 9 h
  concentration in plasma: 111 ng/mL

## NC=O [Formamide]
[7]; 0.5 h
  concentration in plasma: 149000 ng/mL
[7]; 48 h
  concentration in plasma: 4800 ng/mL
[8]; 1.5 h
  concentration in plasma: 50100 ng/mL
[8]; 30 h
  concentration in plasma: 17900 ng/mL
[9]; 5 min
  concentration in plasma: 131000 ng/mL
[9]; 36 h
  concentration in plasma: 22500 ng/mL
[10]; 1 h
  concentration in plasma: 48700 ng/mL
[10]; 72 h
  concentration in plasma: 1600 ng/mL
[11]; 8 h
  concentration in plasma: 365000 ng/mL
[11]; 12 h
  concentration in plasma: 307000 ng/mL

## c1ccncc1 [Pyridine]
[12]
  concentration in plasma: 24500 ng/mL
[13]
  concentration in plasma: 4070 ng/mL

— EPA's CvTdb concentration-time database
